Target: T1, His-HDAC6 (human, UniProt Q9UBN7 1-1215)
T1 sequence (looked up): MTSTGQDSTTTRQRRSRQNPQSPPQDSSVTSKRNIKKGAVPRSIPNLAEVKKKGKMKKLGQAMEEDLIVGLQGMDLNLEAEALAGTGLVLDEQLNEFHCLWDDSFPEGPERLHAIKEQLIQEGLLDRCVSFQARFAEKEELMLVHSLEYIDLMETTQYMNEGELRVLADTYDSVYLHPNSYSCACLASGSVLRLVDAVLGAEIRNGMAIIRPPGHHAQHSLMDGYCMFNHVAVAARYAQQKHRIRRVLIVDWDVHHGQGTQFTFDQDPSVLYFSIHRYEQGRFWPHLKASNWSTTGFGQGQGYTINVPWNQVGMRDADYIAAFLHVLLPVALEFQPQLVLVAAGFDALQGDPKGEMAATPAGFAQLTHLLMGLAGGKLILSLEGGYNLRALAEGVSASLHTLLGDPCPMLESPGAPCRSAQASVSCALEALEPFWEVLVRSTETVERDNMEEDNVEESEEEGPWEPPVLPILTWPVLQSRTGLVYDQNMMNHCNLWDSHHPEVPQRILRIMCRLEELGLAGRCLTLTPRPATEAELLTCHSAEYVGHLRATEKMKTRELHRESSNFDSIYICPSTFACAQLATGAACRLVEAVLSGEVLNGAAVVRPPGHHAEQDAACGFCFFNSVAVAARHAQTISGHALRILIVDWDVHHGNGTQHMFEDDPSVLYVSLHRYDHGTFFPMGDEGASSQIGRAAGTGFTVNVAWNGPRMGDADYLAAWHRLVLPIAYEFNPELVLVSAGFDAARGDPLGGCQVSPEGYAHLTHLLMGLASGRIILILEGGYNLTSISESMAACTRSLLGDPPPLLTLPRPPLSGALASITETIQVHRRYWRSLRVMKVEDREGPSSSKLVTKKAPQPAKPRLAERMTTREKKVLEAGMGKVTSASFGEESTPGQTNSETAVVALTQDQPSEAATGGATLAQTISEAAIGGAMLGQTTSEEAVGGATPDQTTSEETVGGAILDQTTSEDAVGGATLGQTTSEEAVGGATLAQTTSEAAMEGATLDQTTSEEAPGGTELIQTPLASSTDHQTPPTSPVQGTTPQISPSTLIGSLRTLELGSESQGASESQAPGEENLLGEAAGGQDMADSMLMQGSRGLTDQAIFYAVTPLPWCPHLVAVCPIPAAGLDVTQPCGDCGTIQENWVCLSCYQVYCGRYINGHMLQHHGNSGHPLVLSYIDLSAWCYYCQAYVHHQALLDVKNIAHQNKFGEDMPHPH
Assay: pull-down

binding result: binds
B1: GST-RNF168 UDM1 and UDM2 domain ([…] aa) (domain or fragment)
chain: not shown
